Data reported in the supplement of paper PMC9433436.
± gives the standard deviation of the averaged measurements. In all, about 4,100 sequences were measured (“relative kcat/Km (krel) vs genomic leader AAAGAU”: median about 1.7, highest 2% from about 6.5 on). The list shows a part of the results, in another mix than the full data.

Molecular target: T1, E. coli RNase P holoenzyme (M1 P RNA + rnpA protein) (UniProt P0A7Y8)
T1 sequence: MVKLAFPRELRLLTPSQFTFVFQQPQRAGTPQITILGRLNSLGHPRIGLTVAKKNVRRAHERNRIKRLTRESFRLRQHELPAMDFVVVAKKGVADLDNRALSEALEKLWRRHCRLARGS
Experiment: relative kcat/Km (krel) vs genomic leader AAAGAU (relative (reference leader = 1)); higher = faster RNase P cleavage
Procedure: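 HTS-Kin: a pool of ptRNA-Met (21C construct) with all 4096 combinations of 5' leader nucleotides N(-6) to N(-1) was processed in vitro by E. coli RNase P (P RNA + rnpA/C5 protein) under multiple-turnover conditions at 37 C, pH 8, 17.5 mM MgCl2. Residual substrate was Illumina-sequenced at several fractions reacted, and relative kcat/Km (krel) was computed by internal competition kinetics, calibrated to the genomic leader (AAAGAU = 1). The listed hexamer is the varied N(-6)..N(-1) leader (DNA letters), and it sits between a fixed 5' stem-loop flank (GCAUGCACGAAAGUGCGUGCUAUGAA) and the mature tRNA-Met starting GGCUACGUAGCUCAGUUGG. Two technical replicates are averaged.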

[1] = fraction of substrate reacted: ~9-10% (9.79% repeat 1, 9.1% repeat 2)
[2] = fraction of substrate reacted: ~13-16% (15.68% repeat 1, 13.17% repeat 2)
[3] = fraction of substrate reacted: ~26-29% (28.66% repeat 1, 26.4% repeat 2)

Sequence | relative kcat/Km [1] | relative kcat/Km [2] | relative kcat/Km [3]
TAAATT | 1.84 ± 0.54 | 2.08 ± 0.067 | 2.61 ± 1.3
CTCCCC | 2.43 ± 0.053 | 3.34 ± 1 | 4.73 ± 2.2
ACGCAT | 1.58 ± 0.85 | 2.23 ± 0.052 | 3.39 ± 1.3
CACATA | 3.54 ± 0.72 | 4.2 ± 0.97 | 5.34 ± 2.4
GTCTGG | – | 0.567 ± 0.54 | 0.916 ± 0.067
CGGGGT | – | – | 1.32 ± 0.86
CCTAAA | 2.53 ± 1.5 | 2.31 ± 0.051 | 3.14 ± 0.82
GTGTGC | 0.646 ± 0.36 | 0.941 ± 0.17 | 1.05 ± 0.025
ATAATT | 1.81 ± 0.87 | 2.21 ± 0.13 | 2.94 ± 1.4
AAATCG | – | – | 1.1 ± 0.071
CGTATG | – | – | 1.89 ± 0.14
GGCAGA | 2.2 ± 0.83 | 2.88 ± 0.28 | 4.78 ± 1.9
AATACC | 1.49 ± 0.43 | 1.431 ± 0.0097 | 1.56 ± 0.25
GGCCAC | 0.682 ± 0.091 | 1.39 ± 0.35 | 2.65 ± 0.59
TCAAGC | 2.38 ± 0.69 | 2.23 ± 0.16 | 2.9 ± 0.75
GTACGC | 2 ± 0.098 | 2.7 ± 0.46 | 3.72 ± 1.3
ATAGTC | 1.61 ± 0.89 | 1.42 ± 1 | 1.68 ± 0.75
TGAGTC | 0.583 ± 0.29 | 1.03 ± 0.4 | 0.524 ± 0.49
GAGTAG | 1.04 ± 0.028 | 1.45 ± 0.37 | 2.77 ± 1.1
TATCAT | 4.22 ± 1.9 | 5.02 ± 0.57 | –
CACGTT | 1.21 ± 0.087 | 1.81 ± 0.32 | 2.27 ± 1.1
TTCTCC | 5.23 ± 2.1 | 6.12 ± 0.67 | 8.25 ± 3

Sequence | relative kcat/Km [1] | relative kcat/Km [2] | relative kcat/Km [3]
TTCCAG | 2.51 ± 1.5 | 3.27 ± 0.64 | 5.49 ± 1.9
AGGTGA | 0.639 ± 0.4 | 0.503 ± 0.19 | 0.743 ± 0.43
TGAGCT | – | 0.836 ± 0.54 | 1.11 ± 0.47
TTGTCA | 2.03 ± 0.66 | 2.26 ± 0.099 | 3.04 ± 0.6
CAAACT | 1.58 ± 0.47 | 1.26 ± 0.27 | 1.31 ± 0.11
AATGAG | – | – | 0.677 ± 0.58
AGCTTA | 2.46 ± 0.35 | 2.83 ± 0.28 | 3.91 ± 1.3
CTCTTT | 3.59 ± 0.8 | 4.98 ± 1.2 | –
ACACAG | – | – | 1.91 ± 0.12
AACAGG | 1.44 ± 0.93 | 1.06 ± 0.89 | 1.33 ± 0.069
CACGCC | 3.91 ± 1.4 | 4.47 ± 1 | 6.13 ± 2.1
CAACTT | 1.49 ± 0.5 | 1.66 ± 0.94 | 1.88 ± 0.8
AGATTA | 2.28 ± 1.7 | 2.49 ± 0.2 | 3.21 ± 0.83
GTGAGA | 0.981 ± 0.28 | 1.29 ± 0.24 | 1.61 ± 0.43
AGAGTA | – | – | 0.77 ± 0.33
CACAAG | 1.66 ± 0.94 | 1.78 ± 0.81 | 3.72 ± 0.99
AAGTAC | 3.18 ± 1.6 | 3.53 ± 0.57 | 4.86 ± 1.7
TAATAG | 2.22 ± 1.8 | 2.12 ± 0.069 | 3.58 ± 0.73
TAGTCC | 1.72 ± 0.61 | 3.25 ± 0.096 | 3.49 ± 1.5
CTGAAA | 1.89 ± 0.12 | 2.26 ± 0.44 | 2.95 ± 0.41
GCACGT | – | – | 0.727 ± 0.1
TAAAAC | 2.14 ± 0.63 | 2.65 ± 0.32 | 3.24 ± 1.3

Sequence | relative kcat/Km [1] | relative kcat/Km [2] | relative kcat/Km [3]
GAAAAC | 1.3 ± 0.74 | 1.5 ± 0.21 | 1.79 ± 0.24
CCCGGC | 0.71 ± 0.032 | 1.23 ± 0.72 | 1.01 ± 0.42
GTAATG | – | 1.21 ± 0.55 | 2.35 ± 0.49
TGCGGG | 0.417 ± 0.073 | 0.776 ± 0.59 | –
TTCTTT | 4.38 ± 0.77 | 6.36 ± 1.2 | 8.65 ± 4
AATTGG | – | – | 0.683 ± 0.13
AGTATG | – | 0.463 ± 0.43 | 1.8 ± 0.41
TTGCGA | 1.1 ± 0.36 | 1.53 ± 0.44 | 1.91 ± 0.14
ATTTCG | – | 0.774 ± 0.088 | 1.54 ± 0.3
ACTTTC | 2.54 ± 1.1 | 2 ± 0.66 | 2.64 ± 0.73
TGCTCA | 1.76 ± 0.62 | 2.48 ± 0.64 | 2.92 ± 1.3
CTCGGT | – | – | 1.88 ± 0.47
ACTCTT | 2.38 ± 0.7 | 2.15 ± 0.55 | 2.51 ± 0.61
CGTTTT | 2.83 ± 0.53 | 3.46 ± 0.96 | 5.18 ± 2.1
AAGTGC | 1.56 ± 0.53 | 1.45 ± 0.37 | 1.44 ± 0.55
AGCAGG | – | – | 0.91 ± 0.13
ACAGCT | 0.826 ± 0.092 | – | 0.873 ± 0.12
GTCACA | 3.73 ± 1.8 | 4.78 ± 1.1 | 7.01 ± 2.5
GGTTTG | – | – | 0.405 ± 0.073
AATGTA | 1.68 ± 0.94 | 0.976 ± 0.56 | 1.34 ± 0.42
CCAGGT | – | – | 1.05 ± 0.24
TCAACT | – | – | 1.07 ± 0.23

Sequence | relative kcat/Km [1] | relative kcat/Km [2] | relative kcat/Km [3]
TGTCAA | 3.03 ± 1.6 | 3.56 ± 0.18 | 5.75 ± 2.1
GTCATT | 4.45 ± 1.6 | 5.21 ± 2 | 8.08 ± 4
ACAGGA | – | – | 1.04 ± 0.65
TGAATC | 1.86 ± 0.16 | 1.84 ± 0.4 | 2.53 ± 0.78
CCAAGA | 1.04 ± 0.32 | – | 1.42 ± 0.48
GACTCG | 1.8 ± 1.4 | 1.87 ± 0.13 | 3.21 ± 0.58
CAATGC | 2.39 ± 0.52 | 2.18 ± 0.45 | 3.68 ± 1.3
TTGCCA | – | – | 1.11 ± 0.44
AGTGAA | 2.54 ± 0.25 | 2.23 ± 0.96 | 3.35 ± 1.5
TCGCAG | 1.34 ± 0.53 | 0.983 ± 0.69 | 2.16 ± 0.16
CGGTAT | 0.633 ± 0.21 | 1.01 ± 0.72 | 1.32 ± 0.91
CAACCT | 1.37 ± 0.53 | 1.17 ± 0.021 | 1.52 ± 0.24
TATCTC | 2.14 ± 0.37 | 2.32 ± 0.5 | 3.37 ± 1.5
TCTACG | 0.904 ± 0.44 | 1.04 ± 0.67 | 2.26 ± 0.51
TTGATA | 1.3 ± 0.25 | 1.33 ± 0.13 | 1.55 ± 0.51
ACAAAA | 1.77 ± 0.97 | 1.83 ± 0.079 | 2.12 ± 0.64
CTTAGT | – | 1.6 ± 1.2 | 2.07 ± 1.8
TATATA | 2.57 ± 2 | 2.35 ± 0.29 | 3.54 ± 1.4
AGGAAT | 1.06 ± 0.013 | 1.49 ± 0.47 | 1.71 ± 0.61
ATGGCC | 1.33 ± 0.72 | 1.34 ± 0.38 | 1.03 ± 0.55
TTTGAG | – | – | 1.1 ± 0.04
CAATTA | 1.84 ± 1.5 | 1.86 ± 0.62 | 2.28 ± 0.56

Sequence | relative kcat/Km [1] | relative kcat/Km [2] | relative kcat/Km [3]
GCACAC | – | 0.487 ± 0.34 | 2.03 ± 0.68
CGGTAG | – | 0.37 ± 0.12 | 0.591 ± 0.53
AAGAAT | 2.06 ± 0.33 | 1.89 ± 0.36 | 3.17 ± 1.4
CAGGCT | – | – | 0.394 ± 0.029
GACCGT | – | – | 1.96 ± 1.6
CTGTAT | 3.52 ± 0.71 | 3.09 ± 0.81 | 4.53 ± 1.6
CGTAAA | 2.72 ± 0.049 | 3.22 ± 1.9 | 5.51 ± 2.3
TCTAAG | 2.04 ± 1.6 | 1.47 ± 0.52 | 2.47 ± 0.27
ACTCTC | 2.34 ± 0.92 | 2.14 ± 0.78 | 2.26 ± 0.68
CTTTGG | 0.744 ± 0.3 | – | –
CTCGTA | 3.1 ± 0.69 | 3.21 ± 0.68 | 4.83 ± 2
AAGTAT | 2.47 ± 0.78 | 2.76 ± 0.072 | 4.3 ± 2
GGTCTA | 0.826 ± 0.33 | 0.795 ± 0.069 | 1.16 ± 0.36
ATCTTT | 3.55 ± 1.4 | 4.27 ± 0.42 | 6.67 ± 2.8
ACATAA | 3.21 ± 1.3 | 3.57 ± 0.46 | 5.11 ± 2.7
GTCTTA | 4.14 ± 1.1 | 5.78 ± 0.74 | 7.65 ± 2.9
CACATC | 2.93 ± 1 | 3.64 ± 0.86 | 5.53 ± 2.1
CCTATA | 2.09 ± 0.3 | 2 ± 0.19 | 2.67 ± 1.3
